Consider 91 compounds from PubChem BioAssay AID463173 (ICCB-Longwood Screening Facility, Harvard Medical School, 2010).

Molecules are shown by their SMILES. The campaign covered roughly 52,000 compounds. About 4,300 (8.3%) were called active. Rule as the data show it: active = survival mostly below about 52% (no sharp cut-off); inactive = mostly above about 56%. The list shows a part of the results.

In the assay the test system is DeltatarO mutant. As to the kind of experiment: S. aureus survival, RN4220 and DeltatarO strains – OD600, teichoic acid synthesis inhibitors, primary screen (AID 463173). The conditions noted are these: S. aureus RN4220 wild type/DeltatarO growth, OD600, 18 h, stronger effect = lower value, screened at 18.75 µg/mL (by protocol).
Take `O=C(Cc1ccc(F)cc1)NCCc1csc(-c2cccc(F)c2)n1`: the survival is inactive: 88%.
In the case of `O=C(Nc1ccc2nc(SCC(=O)N3CCCc4ccccc43)sc2c1)c1cccc(Cl)c1`, the survival was inactive: 88%.
In the case of `COCCCNS(=O)(=O)c1ccc(N2CCCCS2(=O)=O)cc1`, the survival was inactive: 67%.
The result for `O=C(NC1CSCC1=O)c1ccccc1` (stereo unspecified) reads inactive: 69%; that for `CN(C(=O)c1ccc(Br)cc1)C1CCCCC1`, inactive: 70%.
The result for `Cc1ccc(NC(=O)CN2C(=O)CSc3ccc(S(=O)(=O)N4CCCC4)cc32)c(C)c1` reads inactive: 92%.
As to `COc1ccc(C(=O)Oc2c(Sc3ccccc3)c(C)nn2-c2ccccc2)cc1OC`, the survival was inactive: 47%.
To `COc1ccccc1NC(=O)C1=C(C)Nc2nc3ccccc3n2C1c1cccc(Br)c1` (stereo unspecified) belongs inactive: 79%.
Take `COc1ccc(N2CCN(Cc3cc(=O)oc4ccc(OC)cc34)CC2)cc1`: the survival is inactive: 86%.
Take `CCc1ccccc1Nc1cc(C(=O)NCCc2ccccc2)c2ccccc2n1`: the survival was inactive: 95%.
For the compound `CCOc1ccc2nc(NCCNC(=O)C3CCCCC3)c(C#N)cc2c1`, the survival is inactive: 106%.
To `CCCOc1ccc(Nc2cc(C)nc(C)n2)cc1` belongs inactive: 64%; to `O=C(Cn1c(=O)n(-c2ccc(F)cc2)c(=O)c2sc3ccccc3c21)NC1CCCCC1`, inactive: 79%.
With `CCOC(=O)c1ccc2c(c1)N(Cc1cccc(C(F)(F)F)c1)C(=O)c1ccccc1S2(=O)=O`, the survival is inactive: 90%.
As for `O=C(NCC(c1cccnc1)N1CCOCC1)C(=O)Nc1ccc(F)cc1` (stereo unspecified), the survival is inactive: 81%.
To `Cn1c(SCc2cccc(F)c2)nc2c([nH]c3ccccc32)c1=O` belongs inactive: 120%; to `CCCn1ccc2c(OCC(=O)Nc3ccccc3OCC)cccc2c1=O`, inactive: 102%.
The result for `COc1ccc(OC)c(CCNc2nccn(-c3ccc(C)c(C)c3)c2=O)c1` reads inactive: 100%.
The result for `Cc1ccc(CNC(=O)CCC(=O)N2Cc3ccccc3Oc3ncccc32)cc1` reads inactive: 71%; that for `COc1ccc(Cn2c(=O)[nH]c3cc(C(=O)N4CCN(c5ccccc5)CC4)ccc3c2=O)cc1`, inactive: 135%.
Turning to `COc1cc(-c2noc(CSc3nc(-c4ccc(F)cc4)cc(=O)[nH]3)n2)cc(OC)c1OC`, the survival is inactive: 69%.
To `CCC1CCC(C(=O)NC(C(=O)NCCN(CC(C)C)CC(C)C)C(C)C)CC1` (stereo unspecified) belongs inactive: 67%.
The result for `COc1ccccc1NC(=O)Cn1cnc2c(nc3n2CCCCC3)c1=O` reads inactive: 96%.
To `CC1CCN(S(=O)(=O)c2ccc3c(c2)c(=O)c(C(=O)NCc2ccc(Cl)cc2)cn3C)CC1` belongs inactive: 68%.
Turning to `Cc1ccccc1CNC(=O)c1ccccc1NC(=O)c1nsc2ccccc12`, the survival was inactive: 109%.
To `O=C(Nc1ccc(Cl)c(C(F)(F)F)c1)C1CCCN(S(=O)(=O)c2cccc3cccnc23)C1` (stereo unspecified) belongs inactive: 70%; to `CC(C)(C)c1ccc(CSc2nc3c(c(=O)[nH]2)CCCC3)cc1`, inactive: 104%; to `COc1ccccc1NC(=O)c1oc2ccccc2c1NC(=O)C(C)C`, inactive: 103%.
The result for `COCCn1c(C)cc(C=C2C(=O)NC(=O)NC2=O)c1C` reads inactive: 100%; that for `Cc1cccc(NC(=O)CSc2nnc3scc(-c4ccccc4)n23)c1`, active: 40%; that for `COc1cccc(-c2nnc(-c3cc4cc(Cl)ccc4oc3=O)o2)c1`, inactive: 140%.
The result for `COc1ccc(Cn2ccc3nc(C)c(C(=O)Nc4ccc(F)cc4)cc3c2=O)cc1` reads active: 20%; that for `CCn1cc(C(=O)NCCc2ccc(Cl)cc2)c(=O)c2cc(S(=O)(=O)N3CCc4ccccc4C3)ccc21`, active: 54%.
As for `COCCCNC(=O)c1[nH]c2cc(OC)ccc2c1Sc1ccc(C)cc1`, the survival was inactive: 109%.
Turning to `O=C(Nc1ccc(F)cc1)N1CCN(c2ccc3nnc(-c4ccc(F)cc4)n3n2)CC1`, the survival was inactive: 102%.
The result for `Cc1ccc(-n2nnc(-c3nsc(NC(=O)c4ccccc4C)n3)c2C)cc1Cl` reads inactive: 134%; that for `COCCN(Cc1cc2ccc(C)c(C)c2nc1Cl)C(=O)N1CCOCC1`, inactive: 89%.
For `CCOc1ccc(Nc2c(S(=O)(=O)c3ccc(Cl)cc3)cnc3ccc(OC)cc23)cc1`, the survival was inactive: 67%.
For `COc1ccc(-c2c3c(=O)n(C)c(=O)n(C)c3cn2-c2cccc(N)c2)cc1`, the survival is inactive: 79%.
With `COc1ccc(-c2cn3c(n2)sc2cc(C(=O)NCc4cccs4)ccc23)cc1`, the survival is active: 55%.
For the compound `CCOC(=O)CC(NC(=O)CCc1c(C)nc2c(-c3ccccc3)c(C)nn2c1C)c1ccc(C)cc1` (stereo unspecified), the survival was inactive: 63%.
Consider `Cc1ccc(CNC(=O)C2CCN(C(=O)c3ccc(-n4ccc5ccccc54)s3)CC2)cc1`, for which the survival is inactive: 84%.
Consider `O=C(NCCOCCO)C(=O)Nc1c2c(nn1-c1ccc(F)cc1)CSC2`, for which the survival is inactive: 79%.
The result for `Cc1ccc2cc3cc(C(=O)N4CCN(c5cccc(C(F)(F)F)c5)CC4)sc3nc2c1` reads inactive: 102%; that for `CN(c1ncnc2c1c(-c1ccccc1)cn2-c1ccc(F)cc1)C1CCCCC1`, inactive: 102%.
Regarding `CCC(=O)N1CCc2cc(S(=O)(=O)CCC(=O)N3CCN(c4ccccc4Cl)CC3)ccc21`, the survival was inactive: 102%.
To `CCOC(=O)c1cc(-c2ccccc2)n(CCC(=O)Nc2ccc(C(F)(F)F)cc2)c1C` belongs inactive: 131%; to `O=C(NCCn1cc(SCc2cccc(F)c2)c2ccccc21)c1cccc(C(F)(F)F)c1`, active: 35%; to `Cc1ccc(N(Cc2cccs2)C(=O)c2ccccc2)cc1`, inactive: 60%.
As for `Cc1c(NC(=O)Cc2ccc(F)cc2)cccc1-c1nc2cccnc2s1`, the survival was inactive: 91%.
On to `COCCn1c(=S)[nH]c2ccccc2c1=O`, for which the survival was inactive: 109%.
On to `Cc1cccc(NC(=O)CSc2nc3ccc(NC(=O)COc4ccc(Cl)cc4)cc3s2)c1`, for which the survival is inactive: 71%.
To `Fc1ccc(-c2nc(-c3cccs3)c(-c3cccs3)[nH]2)cc1` belongs inactive: 64%.
`O=C(Nc1nnc(SCc2cc(=O)c3ccccc3[nH]2)s1)c1ccccc1`: the survival is inactive: 79%.
The result for `Cc1nn(-c2ccccc2)c2c1N(CC(=O)NCc1ccc(N(C)C)cc1)C(=O)CS2` reads inactive: 83%.
Regarding `N#CC1=C(N)C(C#N)(C#N)C(c2ccco2)C2CN(Cc3ccccc3)CC=C12` (stereo unspecified), the survival was inactive: 89%.
The result for `CN1C(=O)C(CC(=O)NCC2CCCCC2)SC1=Nc1ccccc1` (stereo unspecified) reads inactive: 90%; that for `COc1ccc(-c2nc3ccc(NS(C)(=O)=O)cc3o2)cc1`, inactive: 77%.
The result for `Clc1ccccc1Cn1cccc1C1=NC(Cc2ccccc2)CO1` (stereo unspecified) reads active: 40%.
Take `O=C(O)c1ccc(Nc2nc(-c3ccccc3)c3cc(Br)ccc3n2)cc1`: the survival is active: 21%.
As to `CCCC1OC2CC3C4CCC5=CC(=O)C=CC5(C)C4C(O)CC3(C)C2(C(=O)O)O1` (stereo unspecified), the survival was inactive: 108%.
In the case of `Cn1c(SCC(N)=O)nc2c([nH]c3ccccc32)c1=O`, the survival is inactive: 88%.
The result for `CCCN(C(=O)C(=O)Nc1ccc2nc3n(c(=O)c2c1)CCCCC3)c1ccc(OCC)cc1` reads inactive: 58%.
Turning to `COc1cccc(CNC(=O)CSc2nc(=O)[nH]c3c2CCC3)c1`, the survival is inactive: 80%.
To `CCOc1ccccc1C(=O)Nc1cccc2ccc(C)nc12` belongs inactive: 68%; to `CC(SC(=S)N1CCCCCC1)C(=O)O` (stereo unspecified), inactive: 90%.
Regarding `O=C(NCCc1csc(-c2ccc(Cl)cc2)n1)c1ccco1`, the survival was inactive: 101%.
The result for `COc1ccc(CCNc2nc3ccc(Cl)cc3n3cnnc23)cc1OC` reads inactive: 91%; that for `Cc1cccc2nc(-c3ccc(N(C)C)cc3)c(Nc3ccc4c(c3)OCO4)n12`, inactive: 102%; that for `COc1ccc(CCNS(=O)(=O)c2cc(-c3cc(C)no3)ccc2OC)cc1OC`, inactive: 83%.
In the case of `CC(C)c1ccc(-c2noc(SCC(=O)N3CCN(c4ccc(F)cc4)CC3)n2)cc1`, the survival is inactive: 73%.
To `CCOc1ccc(OCc2ccc(C(=O)Nc3cc(OC)c(OC)c(OC)c3)o2)cc1` belongs active: 54%; to `Cc1ccc(C)c(NC(=O)N(C)CCc2c(C)nn(C)c2C)c1`, inactive: 84%.
As for `O=C(CCc1ccccc1)N(Cc1cccnc1)c1nc2c(F)cc(F)cc2s1`, the survival is inactive: 119%.
As for `Cc1ccc(C)c(Nc2nn3c(=O)c4ccc(C(=O)NCCC5=CCCCC5)cc4nc3s2)c1`, the survival is inactive: 90%.
As for `Cc1ccc(N2CC(C(=O)NCCS(=O)(=O)N3CCN(c4ccccc4)CC3)CC2=O)cc1C` (stereo unspecified), the survival is inactive: 83%.
The result for `CCOc1ccc(-c2nc(CNC(=O)NC3CCCCC3)c(C)o2)cc1` reads inactive: 90%.
The result for `CCNc1nc(N)nc(Oc2ccc(OCC(=O)OC)nn2)n1` reads inactive: 103%; that for `CCN(CC)CCNc1ncnc2c1cnn2-c1cc(Cl)ccc1C`, inactive: 77%.
The result for `Cc1ccc(C(=O)Nc2nc3nc(C)cc(=O)n3[nH]2)cc1` reads inactive: 91%.
For the compound `COCCCNC(=O)c1[nH]c2ccccc2c1Sc1ccc(C)cc1`, the survival was inactive: 69%.
In the case of `Cc1ccccc1NC(=O)Cn1c(=O)n(CCCCCC(=O)NCc2ccccc2Cl)c(=O)c2sccc21`, the survival is inactive: 103%.
The result for `Brc1ccc(-c2csc(NN=C3CCCC3)n2)cc1` reads inactive: 102%.
For the compound `CCS(=O)(=O)N1CCc2cc(C(=O)NCc3ccc(Cl)cc3)ccc21`, the survival is inactive: 92%.
As for `COC(=O)c1c(NC(=O)Cc2cccs2)sc2c1CCCC2`, the survival was inactive: 119%.
With `O=C1c2ccccc2C(=O)N1CC(O)CN1CCOCC1` (stereo unspecified), the survival is inactive: 81%.
For `COc1cc(C2CC(=O)c3c([nH]c(C(=O)OCc4ccc(C)cc4)c3C)C2)cc(OC)c1OC` (stereo unspecified), the survival is inactive: 83%.
As for `COc1ccccc1-c1nnc(C2CCN(C(=O)c3cccc(Cl)c3)CC2)o1`, the survival was inactive: 88%.
Consider `Cc1cccc(C(c2sc3nc(-c4ccco4)nn3c2O)N2CCN(Cc3ccccc3)CC2)c1` (stereo unspecified), for which the survival is inactive: 94%.
To `CCOC(=O)c1ccccc1NC(=O)Cn1c(=O)n(CCC(=O)N2CCc3ccccc3C2)c(=O)c2ccccc21` belongs inactive: 87%; to `COc1cc(NC(=O)c2cc(Cl)ccc2Cl)ccc1NC(=O)c1cc2ccccc2o1`, inactive: 55%.
